Laboratory results reported in EP4682164A1 (Curogen Technology Co., Ltd., dated 2026).

How the values were obtained:
[1] = target: T1, wild-type IL-17RC (wtIL-17RC) (human, UniProt Q8NAC3 21-538, limits assumed); assay: binding affinity analysis of Table 12 (Octet BLI as described in Example 5)
T1 construct: also called IL-17RC wild type
T1 sequence (looked up): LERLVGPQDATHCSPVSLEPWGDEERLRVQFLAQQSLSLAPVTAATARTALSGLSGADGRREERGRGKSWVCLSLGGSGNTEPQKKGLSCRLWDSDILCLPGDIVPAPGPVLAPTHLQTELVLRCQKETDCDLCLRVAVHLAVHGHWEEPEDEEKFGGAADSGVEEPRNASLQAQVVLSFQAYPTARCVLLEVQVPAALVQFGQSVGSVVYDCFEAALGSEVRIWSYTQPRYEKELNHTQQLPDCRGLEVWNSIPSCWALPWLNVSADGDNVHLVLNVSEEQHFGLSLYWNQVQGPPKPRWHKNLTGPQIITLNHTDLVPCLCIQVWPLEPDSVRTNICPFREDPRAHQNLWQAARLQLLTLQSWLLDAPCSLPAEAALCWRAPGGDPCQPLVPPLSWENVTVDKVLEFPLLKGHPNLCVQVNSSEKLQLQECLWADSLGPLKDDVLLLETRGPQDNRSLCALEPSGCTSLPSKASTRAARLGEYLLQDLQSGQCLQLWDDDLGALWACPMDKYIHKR

[2] = target: T2, wild-type IL-17RA (wtIL-17RA) (human, UniProt Q96F46 33-320, limits assumed); assay: as above
T2 construct: also called IL-17RA wild type

B1: human IL-17A (IL-17AA homodimer) (ligand)
chain: not shown
notes: also called hIL-17A; hIL-17AA
A Kd [1] of 0.4 nM and a Kd [2] of 0.7 nM were found for B1 in this work.
